Measurements published in PubChem BioAssay AID463173 (ICCB-Longwood Screening Facility, Harvard Medical School, 2010).
Hit rate of the full screen: of about 52,000 compounds, about 4,300 (8.3%) were called active. Cut-off read from the data, not from the text of the source: active = survival mostly below about 52% (no sharp cut-off); inactive = mostly above about 56%. This is one part of the list.

These compounds were tested on DeltatarO mutant (assay: growth inhibition of S. aureus wild type versus tarO mutant, primary screen, teichoic acid synthesis inhibitors, RN4220, OD600 (AID 463173)). Conditions: OD600, 18 h, active compounds read low, screened at 18.75 µg/mL (by protocol).
For `Cc1ccc(N2CC(c3nc(-c4ccc(Cl)cc4)no3)CC2=O)cc1F` (centres undefined), the survival was inactive: 98%. For `Cc1cc(N2CCC(C(=O)Nc3ccc(F)cc3C)CC2)n2nc(C)c(-c3ccc(Cl)cc3)c2n1`, the survival was inactive: 96%. For `O=C(NCCc1ccc(Cl)cc1)c1ccco1`, the survival was inactive: 98%. In the case of `Cc1cc(Br)ccc1NC(=O)C1CCCN(S(=O)(=O)c2cccc3nonc23)C1` (centres undefined), the survival is reported as inactive: 70%. For `CCOC(=O)c1cccc(NC(=O)CC2C(=O)N(c3ccc(Cl)cc3)C(=O)N2C2CCCC2)c1` (centres undefined), the survival was inactive: 88%. With `FC(F)(F)c1cccc(-n2nnnc2-c2ccccc2)c1` the survival was inactive: 107%. In the case of `CS(=O)(=O)N1CCC(c2nc(-c3ccc(S(=O)(=O)NCC4CCCO4)cc3)no2)CC1` (centres undefined), the survival is reported as inactive: 85%. `CCOc1ccccc1NC(=O)CSc1nc2c(sc3ccccc32)c(=O)n1CCCC(=O)NC1CCCC1` was tested, and the survival was inactive: 65%. With `COc1cc(NC(=O)C2CCN(S(=O)(=O)c3ccc4c(c3)CCCC(=O)N4)CC2)cc(OC)c1` the survival was inactive: 89%. In the case of `CCOC(=O)c1c(S(=O)(=O)N2CCCC(C(=O)NCc3ccccc3Cl)C2)c(C)n(C)c1C` (centres undefined), the survival is reported as inactive: 122%. For `CCc1cccc(CC)c1NC(=O)C1CCC(CNS(=O)(=O)c2cccc3nsnc23)CC1` (centres undefined), the survival was inactive: 73%. With `COc1ccc2cc3cc(C(=O)Nc4cc(C)c(Cl)cc4OC)oc3nc2c1` the survival was inactive: 96%. In the case of `CC(=O)c1cccc(NS(=O)(=O)c2cc(-c3onc(C)c3C)ccc2C)c1`, the survival is reported as inactive: 83%. In the case of `COc1cc(Cl)c(NC(=O)c2cc(S(=O)(=O)N3CCCCC3)c[nH]2)c(OC)c1`, the survival is reported as inactive: 119%. `COc1ccc(S(=O)(=O)NCCc2sc(-c3cccnc3)nc2C)c(F)c1` was tested, and the survival was inactive: 72%. In the case of `CCc1ccc(C2c3c(oc4ccc(F)cc4c3=O)C(=O)N2CCc2ccc(OC)cc2)cc1` (centres undefined), the survival is reported as inactive: 94%. `COc1ccc(CNCCCSc2nnnn2-c2ccccc2)cc1` was tested, and the survival was inactive: 51%. With `Cc1ccc(CNC(=O)Cn2c(=O)ccc3cc(S(=O)(=O)N4CCC(C)CC4)ccc32)cc1` the survival was active: 37%. `COc1ccc(-c2cc(C(=O)NC(C)c3ccccc3)c3cc(C(C)C)ccc3n2)cc1` (centres undefined) was tested, and the survival was inactive: 101%. In the case of `CCN(CC)CCNC(=O)C(=O)NCC(c1cccnc1)N1CCN(c2ccc(F)cc2)CC1` (centres undefined), the survival is reported as inactive: 79%. For `O=C(Nc1ccccc1C(F)(F)F)c1cc(-c2ccc3c(c2)OCCO3)on1`, the survival was inactive: 117%. With `COc1cccc(CNC(=O)c2ccc(CNS(=O)(=O)c3ccc(C)cc3)cc2)c1` the survival was inactive: 74%. For `CCN(c1ccccc1)S(=O)(=O)c1nnc(NC(=O)c2ccccc2)s1`, the survival was active: 38%. For `CNC(=O)c1ccc(CN2CCc3ccccc3C2)cc1`, the survival was inactive: 100%. For `COCCN1C(=O)C(=O)/C(=C(/O)c2ccccc2)C1c1ccccc1` (centres undefined), the survival was inactive: 102%. In the case of `Cc1cccc(N2CCN(C(=O)c3cnn(-c4ccccc4Cl)c3C3CCN(C(=O)OC(C)(C)C)CC3)CC2C)c1` (centres undefined), the survival is reported as inactive: 93%. With `O=C(CCN1C(=O)c2ccccc2Sc2ncccc21)Nc1ccc(F)cc1F` the survival was inactive: 77%. In the case of `COc1ccc(C2NC(=O)NC(C)=C2C(=O)Nc2ccccc2)cc1OC` (centres undefined), the survival is reported as inactive: 116%. For `COc1cccc(C(=O)N2c3ccc(C)cc3C(C)(c3ccccc3)CC2(C)C)c1` (centres undefined), the survival was active: -5%. `Cc1ccccc1C(=O)Nc1sc2c(c1C(=O)N1CCCCC1)CCC(C)C2` (centres undefined) was tested, and the survival was inactive: 49%. With `Cc1ccc(CC(=O)Nc2ccc3c(c2)N(C)C(=O)c2ccccc2S3)cc1` the survival was inactive: 117%. For `Cc1ccccc1C(=O)N/N=C1/SCC(=O)N1Cc1ccc2c(c1)OCO2`, the survival was inactive: 114%. `COc1cc2c(cc1OC)n(CC(=O)c1cccc(Cl)c1)c(=O)n1nc(CCn3nc(C)cc3C)nc21` was tested, and the survival was inactive: 80%. `Cc1ccc(Nc2sc(C(=O)c3ccccc3)c(N)c2C(=O)Nc2ccc(Cl)cc2)cc1` was tested, and the survival was inactive: 55%. In the case of `CCOCCCNC(=O)c1cc(Sc2cccc(Cl)c2)nc2ccccc12`, the survival is reported as inactive: 74%. For `Cc1ccc(NC(=O)Cn2c(=O)n(Cc3nc(C)no3)c(=O)c3cc4c(cc32)OCO4)c(C)c1`, the survival was inactive: 83%. `CC(C)c1ccc(NC(=O)CSc2nc(=O)n(Cc3ccccn3)c3c2CCC3)cc1` was tested, and the survival was inactive: 116%. With `N#Cc1nc(COc2cccc(Cl)c2)oc1NCCc1ccccc1` the survival was active: 39%. With `CCCn1c(SCc2nc(-c3ccccc3OCC)no2)nnc1-c1ccc(Cl)cc1` the survival was active: 43%. `COC(=O)CSc1nnc(-c2ccco2)n1Cc1ccco1` was tested, and the survival was inactive: 96%. For `CCOc1ccccc1C(=O)N(Cc1cc(OC)c(OC)c(OC)c1)c1ccccn1`, the survival was inactive: 90%. With `CCOC(=O)c1ccc(NC(=O)C(Cc2ccccc2)N2Cc3ccccc3C2=O)cc1` (centres undefined) the survival was inactive: 77%. `Cc1ccc(-c2nn3c(=O)cc(CN4CCN(C(=O)/C=C/c5ccccc5)CC4)nc3s2)cc1` was tested, and the survival was inactive: 68%. In the case of `CCCOc1ccc(C(=O)Nc2ccc3oc(-c4cccc(Cl)c4Cl)nc3c2)cc1`, the survival is reported as inactive: 80%. For `CCOC(=O)c1ccc(NC(=O)CSc2cn(CC(=O)N3CCCC3)c3ccccc23)cc1`, the survival was inactive: 66%. `Nc1nc2c(ccc3[nH]c(=O)c(=O)[nH]c32)s1` was tested, and the survival was inactive: 90%. For `Cc1ccc(-n2nc3c(N4CCCC(C(=O)NCc5ccc(Cl)cc5)C4)nnc(C)c3c2C)cc1` (centres undefined), the survival was inactive: 89%. `COC(=O)c1ccc2c(c1)N(CC(=O)Nc1ccc(OC)c(Cl)c1)C(=O)c1ccccc1S2` was tested, and the survival was inactive: 68%. In the case of `O=C(CCS(=O)(=O)c1nc(-c2cccs2)cc(C(F)(F)F)n1)Nc1cc(Br)ccc1O`, the survival is reported as active: 15%. For `CC1=C(C(=O)Nc2ccc(C)cc2C)C(c2ccc([N+](=O)[O-])cc2)n2ncc(C(=O)Nc3ccc(F)cc3)c2N1` (centres undefined), the survival was inactive: 101%. With `Cc1ccc(-n2c(=O)c3c(cnn3C)n(CC(=O)Nc3ccc(C)cc3C)c2=O)cc1` the survival was inactive: 90%. `CN(c1ccc(F)cc1)S(=O)(=O)N1CCCC(C(=O)NCc2cccc(Br)c2)C1` (centres undefined) was tested, and the survival was inactive: 72%. `Cc1ccccc1Cc1c(C)nc2nc(SCC(=O)N(C)c3ccccc3)nn2c1C` was tested, and the survival was inactive: 78%. For `Cc1c(C(=O)N2CCC(C)CC2)c(S(=O)(=O)NCc2ccc(Cl)cc2)c(C)n1C`, the survival was inactive: 128%.
